# Source: PubChem BioAssay AID938 (National Center for Advancing Translational Sciences (NCATS), 2007)
# Where “and” joins values, the source holds several entries; their conditions need not be identical. Identical values can stand only once. In all, about 73,000 compounds went through this assay and about 1,800 (2.5%) were called active. This list was built around the results that the source calls inconclusive (neither active nor inactive); the mix of calls is not that of the screen. The call rests on the fitted dose curve; in most records, active means well fitted activation curve with a large enough effect; inconclusive means small, poorly fitted or top-dose-only effect; inactive means no such curve, though single readings can be large or run the other way. Where the call is inconclusive, the potency comes from a doubtful curve fit.
# Assay: qHTS Assay for Agonists of the Thyroid Stimulating Hormone Receptor: Activators of Intracellular cAMP Concentrations in Parental HEK 293; further: nearly all actives have a fitted effect of over 55% in size; on activation: % of control where 0% means no effect
# Conditions: parental HEK293 CNG cAMP sensor, membrane potential fluorescence; activation: at 57.1 µM (top of the series) unless noted
# Excerpt: NIH Chemical Genomics Center [NCGC]
# NIH Molecular Libraries Screening Centers Network [MLSCN]
# PI Name: Dr. Marvin Gershengorn
# This cell based assay utilized a cyclic nucleotide gated ion channel (CNG) as a biosensor for cAMP induction. HEK 293 cells stably expressing the modified CNG were purchased from BD biosciences (http://www.atto.com/products/actone/features_benefits.shtml) . Stimulation of cAMP production causes the CNG to open and subsequent membrane depolarization to occur. A fluorescent membrane potential dye (BD biosciences) was utilized to detect cAMP stimulation in cells.
# The cells were maintained in DMEM medium (Invitrogen) containing 10 % FBS (Hyclone), 100 units/ml Penicillin, 100 ug/ml Streptomycin (Invitrogen), and 250 ug/ml Geneticin (Invitrogen) and 1 ug/ml Puromycin (Invitrogen) at 37C in 5% CO2. This assay was used as a counterscreen to "qHTS Assay for Agonists of the Thyroid Stimulating Hormone Receptor", to control for compounds signaling through endogenous receptors and other targets of HEK 293 cells.
# NCGC Assay Protocol Summary:
# High Throughput Screening. Freshly passaged cells were dispensed into 1536-well assay plates at 4 ul/well in DMEM containing phenol red (Invitrogen), 10% FCS (Hyclone), and 100 units/ml Penicillin, 100 ug/ml Streptomycin (Invitrogen) and incubated at 37 C with 5% CO2 for 20 to 36 hrs before the robotic screening. The screen was initiated by addition of 4 ul/well membrane potential dye containing 100 uM RO 20-1724 (Sigma Aldrich), followed by 60 min incubation at room temperature to allow for dye equilibration across the cell membrane. 23 nl/well compound or control was then added to the assay plates, which were incubated for additional 30 min before reading a Envision fluorescence plate reader (Perkin Elmer) in bottom-read mode for fluorescence intensity (emission at 590 nm).
# Keywords: cAMP, CNG Ion Channel, quantitative high throughput screening, qHTS, HTS, probe identification, CNG, cAMP, cyclic nucleotide gated ion channel PubChem
# Potency means the concentration at half of the fitted maximal effect; tags describe the fitted curve by direction and shape.
SMILES,Potency,activation
Cc1cccc2cc(CN(Cc3nnnn3C3CCCC3)C3CCCCC3)c(=O)[nH]c12,"inconclusive: 5.01 µM [activator, partial curve]",
Cc1ccc(-n2nnnc2SCc2nnc(-c3ccccc3Br)o2)cc1,"inconclusive: 1.58 µM [activator, partial curve]",
COc1ccc(C(=O)Nc2ccc(-c3cn4ccsc4n3)cc2)cc1S(=O)(=O)N1CCOCC1,,inactive: -12.4%
CCc1nc2c(cnn2-c2ccc(Cl)cc2)c(=O)n1-c1ccc(OC)cc1,"inconclusive: 25.1 µM [activator, single point]",
Cc1ccc(-c2cc(C(=O)Nc3cccnc3)c3ccccc3n2)o1,"inconclusive: 31.6 µM [activator, single point]",
COCCn1c(=O)c(-c2ccc(OC)cc2)nc2cnc(OCc3ccccc3)nc21,,inactive: 8.68%
O=C1c2cccc(O)c2C(=O)c2c(O)cccc21,,inactive: -24.2%
CCCC(CCC)n1[nH]c(=O)c2c(C)cc(C)nc21,"inconclusive: 7.94 µM [activator, single point]",
C=CCn1c(N)c(-c2nc3ccccc3n2C)sc1=S,,inactive: -26.5%
COC(=O)c1ccc(C(NC(=O)OCc2ccccc2)/C(=C/[C@@H](C)C(=O)NCc2ccc(S(C)(=O)=O)cc2)c2cccnc2)cc1 (stereo partly specified),,inactive: 6.59%
Cc1ccc2oc(=O)c3cnn(CC(=O)NC4CCCCC4C)c3c2c1 (stereo unspecified),"inconclusive: 0.126 µM [activator, full curve, poor fit]",
O=c1cc(N2CCOCC2)oc2c(-c3ccccc3)cccc12,inactive,
O=C1CCCC=C1[C@@H](O)C1CCCCC1,,inactive: -0.929% [at 11.4 µM]
COCC(=O)Nc1c(C(=O)Nc2ccccc2OC)oc2ccccc12,"inconclusive: 25.1 µM [activator, single point]",
CCCN(CCC)c1ncnc2c1cnn2-c1ccc(OC)cc1,,inactive: 17.9%
Cc1scc(C(=O)NCc2ccco2)c1-c1ccccc1,"inconclusive: 39.8 µM [activator, single point]",
O=C(CCN1C(=O)c2ccccc2C1=O)Nc1ccc(S(=O)(=O)NC2=NCCCCC2)cc1,"inconclusive: 5.01 µM [activator, single point]",
O=C(N[C@@H](Cc1ccccc1)C(=O)O)c1cccnc1,,inactive: 25.1%
CCc1cc2c(=O)n(Cc3ccco3)c(SCC(=O)N3CCCc4ccccc43)nc2s1,"inconclusive: 7.94 µM [activator, full curve, poor fit]",
Cc1noc(C)c1C(=O)N1CCC2(CCCN(c3ccncc3)C2)CC1,,inactive: 7.44%
Cc1oc(-c2ccc(Cl)cc2)nc1CN1CCCC(C(=O)NCc2ccco2)C1 (stereo unspecified),"inconclusive: 25.1 µM [activator, single point]",
CC(C)OCCCNC(=O)c1c(N)n(/N=C/c2ccccn2)c2nc3ccccc3nc12,active: 10 µM,
CCCCn1c(NC(=O)CC)c(C#N)c2nc3ccccc3nc21,active: 25.1 µM,
CCOC(=O)c1cnc(SCC(=O)c2ccccc2)nc1N,,inactive: 28.6%
Cc1ccc2cc3c(N)c(C(=O)N4CCOCC4)sc3nc2c1,,inactive: -7.09%
COc1ccc2[nH]c3c(=O)n(CCCCC(=O)N4CCCC4)c(=S)[nH]c3c2c1,,inactive: -10.3%

SMILES,Potency,activation
Cc1nn2c(-c3cccc(NC(=O)CSc4nc5ccccc5o4)c3)nnc2c2ccccc12,"inconclusive: 12.6 µM [activator, partial curve]",
CN(c1ccc(Cl)cc1)c1cc(=O)n(C)c2ccccc12,"inconclusive: 31.6 µM [activator, partial curve]",
O=C(CSc1nnnn1C1CCCCC1)NCCc1ccccc1,"inconclusive: 5.01 µM [activator, partial curve]",
CCOC(=O)Cc1csc(NC(=O)CSc2nnnn2-c2ccc(CC)cc2)n1,"inconclusive: 31.6 µM [activator, single point]",
CSc1nnc(-c2cccs2)n1-c1ccccc1,"inconclusive: 39.8 µM [activator, single point]",
COC(C1CCCCC1)C(C)C(OCc1cccc(Br)c1)C(C)CO (stereo unspecified),,inactive: 1.33% [at 11.4 µM]
Cc1cc(C)c2c(=O)[nH]c(=O)n(Cc3ccccc3)c2n1,"inconclusive: 39.8 µM [activator, single point]",
CCc1nc(C)cn1S(=O)(=O)c1cc(Br)ccc1OC,,inactive: 11.5%
Cc1cc(-n2c(=O)c(C#N)cc3c(=O)n4cccc(C)c4nc32)no1,,inactive: -6.69%
O=C1Cn2c(nc3ccccc32)N1c1ccccc1F,,inactive: 10.2%
CCCn1c(=NC(=O)c2ccc3c(c2)OCO3)c(C#N)cc2c(=O)n3cccc(C)c3nc21,"inconclusive: 39.8 µM [activator, single point]",
CCOC(=O)c1c(NC(=O)c2ccco2)sc(C(=O)N2CCCC2)c1C,,inactive: 19.8%
CNC(=O)C1(C)C=CCN1C(=O)OC (stereo unspecified),,inactive: 4.97%
Cc1cccc(-c2noc(CN(C(C)C)S(=O)(=O)c3ccc(F)cc3)n2)c1,"inconclusive: 31.6 µM [activator, single point]",
CCNC(=O)COc1ccc(Br)cc1Cl,"inconclusive: 6.31 µM [activator, single point]",
CC(=O)Nc1cc(NC(C)=O)c(CC(C)C)s1,"inconclusive: 39.8 µM [activator, single point]",
CCCCn1c(SCC(=O)Nc2cccc(C)n2)nnc1-c1ccco1,"inconclusive: 31.6 µM [activator, single point]",
O=C(O)c1ccc(S(=O)(=O)c2ccc3c(c2)C(=O)N(CC2CCCO2)C3=O)cc1 (stereo unspecified),active: 20 µM,
CN(C)CCCN1c2ccccc2Sc2cnccc21,,inactive: -1.01% [at 11.4 µM]
NNC(=O)CS(=O)(=O)Nc1ncccn1,,inactive: 6.6% [at 11.4 µM]
O=C(NCc1ccco1)C(c1ccc(F)cc1)N(CC1CCCO1)C(=O)Cn1nnc2ccccc21 (stereo unspecified),,inactive: 16%
Cc1ccc(C(=O)CC2(O)C(=O)N(Cc3ccccc3Cl)c3ccccc32)o1 (stereo unspecified),"inconclusive: 31.6 µM [activator, single point]",
N#CC1=C(N)OC2=C(CCC/C2=C/c2ccoc2)C1c1ccoc1 (stereo unspecified),,inactive: 10.1%
CCC(C)c1ccc(OCC(=O)O)cc1 (stereo unspecified),"inconclusive: 39.8 µM [activator, single point]",
COc1ccc(N(CC(=O)N2c3ccccc3CC2C)S(=O)(=O)c2c(C)noc2C)cc1 (stereo unspecified),"inconclusive: 5.01 µM [activator, partial curve]",
O=c1c2c(nc3c(-c4cccc5ccccc45)c[nH]n13)CCC2,,inactive: 17.2%

SMILES,Potency,activation
COc1ccc(CNc2ncncc2-c2ccccc2C)c(OC)c1,"inconclusive: 20 µM [activator, partial curve]",
COc1cc(C(=O)Oc2ccccc2N)cc(OC)c1OC,,inactive: -1.36% [at 11.4 µM]
CC(C)(Oc1ccc([C@@H]2CC2(Cl)Cl)cc1)C(=O)O,"inconclusive: 50.1 nM [activator, full curve, poor fit] and inconclusive: 15.8 µM [activator, partial curve]",
COc1ncc2nc(CCc3ccccc3)c(=O)n(Cc3cccs3)c2n1,active: 10 µM,
Cc1n[nH]c(C)c1N1C(=O)c2cccc3c(N4CCCCCC4)ccc(c23)C1=O,"inconclusive: 15.8 µM [activator, partial curve]",
Cn1c(NCc2ccco2)nc2c1c(=O)n(Cc1ccc(Br)cc1)c(=O)n2C,,inactive: -23.4%
O=C(CSc1ccc(Cl)cc1)c1ccco1,,inactive: 11.6%
c1ccc2nc(-c3nc4ccccc4o3)ccc2c1,,inactive: 9.17%
CC(C)NC(=O)N1CCC2(CC1)CCN(C(=O)c1csnn1)CC2,,inactive: -6.77%
CCS(=O)(=O)N1CCC(C(=O)NCc2cccs2)CC1,,inactive: 2.2%
Nc1c(-c2ccc(Cl)cc2)nnn1-c1ccccc1,,inactive: -0.592%
COc1ccc2[nH]cc(C3N4CC5(C)CN3CC(C)(C4)C5=O)c2c1 (stereo unspecified),"inconclusive: 31.6 µM [activator, single point]",
CCOc1ccccc1C(=O)N1CCCCC1C (stereo unspecified),"inconclusive: 31.6 µM [activator, single point]",
C=C(C#N)C(=O)OCC,"inconclusive: 20 µM [activator, partial curve]",
CC(C)n1c(SCc2ccc(Cl)cc2)nc2c1c(=O)[nH]c(=O)n2C,"inconclusive: 31.6 µM [activator, single point]",
CC1=CC(=C2C(=O)c3ccccc3C2=O)C=C(C)N1Cc1ccco1,,inactive: 8.56%
CCc1nc(SCC(=O)Nc2cc(C)on2)c2c(C)c(C)sc2n1,"inconclusive: 31.6 µM [activator, single point]",
CC(C)COc1ccc(-c2nnc(-c3ccncc3)o2)cc1,"inconclusive: 25.1 µM [activator, partial curve]",
CC(=O)CC(=O)[C@@]1(O)CC[C@@H]2[C@@H]3C=C(C)C4=CC(=O)CC[C@@H]4[C@H]3CC[C@]21C,,inactive: 13.6% [at 25.6 µM]
CC(C)Cn1c(=O)c(C(=O)Nc2ccccc2S(N)(=O)=O)c(O)c2ccccc21,"inconclusive: 25.1 µM [activator, single point]",
COC(=O)CNC(=O)c1ccc(=O)oc1,"inconclusive: 6.31 µM [activator, single point]",
CCOC(=O)c1ccc(S(=O)(=O)Nc2ccccc2-c2nnn(CC)n2)cc1,"inconclusive: 39.8 µM [activator, single point]",
O=C(NCC1COc2ccccc2O1)Nc1ccccc1F (stereo unspecified),"inconclusive: 39.8 µM [activator, single point]",
Cc1cc(C)c(C#N)c(SCC2COc3ccccc3O2)n1 (stereo unspecified),"inconclusive: 25.1 µM [activator, single point]",
